We go through 87 compounds from publication PMC4336329 (PLoS ONE, 2015).

Structures are written as SMILES. Among all 310,000 compounds or so, about 2,200 (0.71%) showed an effect of 50% or more. Effects have a minus sign here. Some of the results follow.

The target in this experiment is human ether-à-go-go-related gene (hERG) potassium channel (human, UniProt Q12809). Briefly: primary screen, population patch clamp on CHO cells stably expressing hERG.
Chain of human ether-à-go-go-related gene (hERG) potassium channel (Q12809 whole entry, looked up): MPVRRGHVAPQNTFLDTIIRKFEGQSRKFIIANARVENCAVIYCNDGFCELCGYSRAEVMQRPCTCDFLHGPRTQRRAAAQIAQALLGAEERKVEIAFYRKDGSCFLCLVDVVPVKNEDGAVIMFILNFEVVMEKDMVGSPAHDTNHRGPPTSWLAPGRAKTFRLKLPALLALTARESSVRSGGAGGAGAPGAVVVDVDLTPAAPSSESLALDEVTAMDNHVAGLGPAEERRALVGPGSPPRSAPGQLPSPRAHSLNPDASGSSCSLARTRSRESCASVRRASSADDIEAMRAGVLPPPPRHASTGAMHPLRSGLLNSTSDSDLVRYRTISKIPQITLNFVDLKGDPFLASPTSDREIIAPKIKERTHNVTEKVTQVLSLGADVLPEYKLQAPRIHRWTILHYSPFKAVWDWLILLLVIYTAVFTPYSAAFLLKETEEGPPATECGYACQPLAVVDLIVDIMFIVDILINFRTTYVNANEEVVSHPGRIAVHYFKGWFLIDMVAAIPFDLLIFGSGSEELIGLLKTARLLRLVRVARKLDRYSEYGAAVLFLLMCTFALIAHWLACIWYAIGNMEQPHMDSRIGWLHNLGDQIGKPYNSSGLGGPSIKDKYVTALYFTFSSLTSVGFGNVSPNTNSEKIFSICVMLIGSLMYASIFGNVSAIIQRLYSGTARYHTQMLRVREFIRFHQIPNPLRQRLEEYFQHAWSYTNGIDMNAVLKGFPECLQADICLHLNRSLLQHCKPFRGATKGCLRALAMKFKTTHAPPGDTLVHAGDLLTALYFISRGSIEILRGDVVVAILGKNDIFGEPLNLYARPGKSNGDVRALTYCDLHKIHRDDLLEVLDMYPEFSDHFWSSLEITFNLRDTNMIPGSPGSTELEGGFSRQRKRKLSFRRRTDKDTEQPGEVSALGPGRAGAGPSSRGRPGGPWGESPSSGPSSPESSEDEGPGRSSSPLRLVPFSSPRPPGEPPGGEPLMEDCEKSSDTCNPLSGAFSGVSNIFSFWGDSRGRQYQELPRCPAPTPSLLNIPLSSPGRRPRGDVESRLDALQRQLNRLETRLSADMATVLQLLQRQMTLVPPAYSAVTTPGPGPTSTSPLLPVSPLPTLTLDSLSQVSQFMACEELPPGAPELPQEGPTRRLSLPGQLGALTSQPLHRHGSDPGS
Turning to `Cc1cc(C)c(OCC(=O)Nc2ccccc2N2CCOCC2)c(C)c1`, the “hERG current change (%, negative = inhibition) at 1uM” value was determined as 16.7%.
Regarding `Cc1ccc(S(=O)(=O)CCC(=O)Nc2ccccc2Cl)cc1`, the “hERG current change (%, negative = inhibition) at 1uM” value was found to be 11.9%.
The figure for `COC(=O)c1ccccc1NC(=O)CN(c1ccc(C)cc1)S(C)(=O)=O` is 5.38%; for `O=C(Cc1ccccc1)Nc1ccc2c(c1)OC1(CCCC1)O2` it is 10.2%; for `O=C1c2cccnc2C(=O)N1c1cccc(-c2nc3ccccc3o2)c1` it is 8.94%.
As to `CC(C)c1ccc(NC(=O)C(c2ccc3c(c2)OCO3)N2CCCCC2)cc1` (stereo not drawn), the “hERG current change (%, negative = inhibition) at 1uM” value was determined as 9.37%.
With `COc1ccc(N2CCN(S(=O)(=O)c3ccc(OC)c(C(=O)N4CCCCC4)c3)CC2)cc1` the figure was 10%; with `CC(C)(C)OC(=O)[C@H](Cc1ccccc1)NC(=O)c1nc[nH]c1C(=O)NCCCCC[NH3+].[Cl-]`, 6.62%; with `COc1ccc(-n2c(=S)[nH]c3cc(C(=O)O)ccc3c2=O)cc1`, 13.6%.
Take `Cn1c(SCC(=O)Nc2ccccc2[N+](=O)[O-])nnc1C(F)(F)F`: the “hERG current change (%, negative = inhibition) at 1uM” value was 9.39%.
Take `CCCCN1C(=O)NC(NS(=O)(=O)c2ccc(N)cc2)(C(F)(F)F)C1=O` (stereo not drawn): the “hERG current change (%, negative = inhibition) at 1uM” value is given as 2.31%.
As to `CCOC(=O)c1c(C)[nH]c(C)c1S(=O)(=O)N(C)CC(=O)Nc1cc(C)ccc1OC`, the “hERG current change (%, negative = inhibition) at 1uM” value is reported as -1.18%.
`CCc1nc2ccccc2c(=O)n1NC(=O)c1c(O)c2ccccc2[nH]c1=O`: the “hERG current change (%, negative = inhibition) at 1uM” value was found to be 14.2%.
Regarding `COc1ccc(S(=O)(=O)N2CCC(C(=O)N[C@H](C(=O)NCc3ccco3)C(C)C)CC2)cc1`, the “hERG current change (%, negative = inhibition) at 1uM” value is given as 11.8%.
On to `CN(C)CCNc1oc(COc2ccc(Cl)cc2)nc1C#N`, for which the “hERG current change (%, negative = inhibition) at 1uM” value is given as -0.147%.
The figure for `Cc1ccc(C(=O)CC(=O)c2ccccc2)cc1` is 12.8%.
Regarding `O=S(=O)(Nc1cc(S(=O)(=O)N2CCOCC2)ccc1NCC1CCCO1)c1ccccc1` (stereo not drawn), the “hERG current change (%, negative = inhibition) at 1uM” value is -2.27%.
The figure for `COc1ccc(C2c3ccc4ccccc4c3Oc3ncn(CCCN(C)C)c(=N)c32)cc1` (stereo not drawn) is -29%.
Consider `Cc1ccc(C)c(C(=O)CN2C(=O)C(=O)N(C3CCCC3)C2=O)c1`, for which the “hERG current change (%, negative = inhibition) at 1uM” value came to 6.11%.
Consider `COC(=O)c1cc(Br)c(=O)n(-c2ccccc2F)c1`, for which the “hERG current change (%, negative = inhibition) at 1uM” value is given as -6.37%.
For `O=c1c(-c2ccccc2)coc2c(CN3CCOCC3)c(O)ccc12`, the “hERG current change (%, negative = inhibition) at 1uM” value is given as -0.6%.
For the compound `Cc1ccc([N+](=O)[O-])c2cccnc12`, the “hERG current change (%, negative = inhibition) at 1uM” value worked out at 16.1%.
With `COc1ccc(CCC(=O)NC2CCC(C)CC2)cc1` (stereo not drawn) the figure was 16.4%.
With `Cc1ccccc1N1CCN(C2CCCN(C(=O)CCC(=O)N(C)C)C2)CC1` (stereo not drawn) the figure was 12.3%.
On to `COc1ccc(CNc2ncc(-c3ccc(Cl)cc3)n2C)c(OC)c1OC.O=C(O)C(=O)O`, for which the “hERG current change (%, negative = inhibition) at 1uM” value is recorded as -17.8%.
With `Cl.O=C(c1cccs1)c1coc2ccc(O)c(CN(CCO)CCO)c12`, the “hERG current change (%, negative = inhibition) at 1uM” value is on record as -3.86%.
With `COC(=O)c1nnn(-c2nc(N3CCOCC3)nc(N3CCOCC3)n2)c1C`, the “hERG current change (%, negative = inhibition) at 1uM” value is reported as 9.72%.
With `Cc1ccc(NC(=O)COC(=O)CCc2c(C)nc3nc(N)nn3c2C)cc1C` the figure was 5.67%; with `O=C(Nc1cccnc1)c1ccc(S(=O)(=O)N2CCCCCC2)cc1`, 6.27%.
Take `O=C(/C=C/c1ccccc1[N+](=O)[O-])Nc1ccccc1`: the “hERG current change (%, negative = inhibition) at 1uM” value is listed as 13%.
The figure for `O=C(c1ccccc1)c1cc(-c2ccccc2)on1` is 9.31%.
As for `O=C(Nc1cc(S(=O)(=O)N2CCOCC2)ccc1N1CCCC1)C1CC1`, the “hERG current change (%, negative = inhibition) at 1uM” value stood at 5.53%.
As to `Cc1ccccc1CNC(=O)CC1C(=O)NCCN1Cc1c(F)cccc1Cl` (stereo not drawn), the “hERG current change (%, negative = inhibition) at 1uM” value was 11.7%.
Consider `O=C(Cn1c(=O)c2cccn2c2cccnc21)NCCCN1CCN(c2ccc(F)cc2)CC1`, for which the “hERG current change (%, negative = inhibition) at 1uM” value is reported as -48.6%.
Regarding `CN(C(=O)c1ccco1)c1nc(-c2ccc(F)cc2)cs1`, the “hERG current change (%, negative = inhibition) at 1uM” value is 6.7%.
`COc1cc2oc(=O)ccc2cc1[C@@H](O)[C@@H]1OC(C)(C)OC1(C)C`: the “hERG current change (%, negative = inhibition) at 1uM” value stood at 1.99%.
As for `CCNc1nc(N)c(C(=O)c2ccc(Cl)s2)s1`, the “hERG current change (%, negative = inhibition) at 1uM” value came out at 15.6%.
`COc1ccccc1NC(=O)CCCc1nc(-c2ccc(OC)c(OC)c2)no1`: the “hERG current change (%, negative = inhibition) at 1uM” value is reported as -2.19%.
Regarding `CC1=C/C(=N\NC(=O)c2ccccc2)CC1`, the “hERG current change (%, negative = inhibition) at 1uM” value is recorded as -7.9%.
Turning to `COc1cc(C(=O)NC(C)CCn2cccn2)ccc1OC1CCN(C(C)=O)CC1` (stereo not drawn), the “hERG current change (%, negative = inhibition) at 1uM” value amounted to 5.45%.
In the case of `Cc1ccc(Nc2nc3ccccc3s2)c(C)c1`, the “hERG current change (%, negative = inhibition) at 1uM” value was 2.26%.
Take `O=C(COC(=O)CCNS(=O)(=O)c1ccc2c(c1)OCCO2)NC1CCCc2ccccc21` (stereo not drawn): the “hERG current change (%, negative = inhibition) at 1uM” value came to 17.4%.
As to `O=C(CCCN1C(=O)c2cccc3cccc(c23)C1=O)N1CCN(c2ccccc2)CC1`, the “hERG current change (%, negative = inhibition) at 1uM” value was determined as 11.6%.
With `O=C(CN1C(=O)NC2(CCCC2)C1=O)NNC(=O)c1ccc(Cl)cc1`, the “hERG current change (%, negative = inhibition) at 1uM” value is recorded as -4.29%.
On to `CC(C)CCNC(=O)c1ccc(NC(=O)C2=CSCCO2)cc1`, for which the “hERG current change (%, negative = inhibition) at 1uM” value is 13.7%.
With `CCOC(=O)N1CCN(c2c(NCC3CCCO3)c(=O)c2=O)CC1` (stereo not drawn), the “hERG current change (%, negative = inhibition) at 1uM” value is listed as 6.68%.
On to `Cc1ccc2c(c1)c1c3n2CCN(C(=O)CN2CCN(C)CC2)C3CCC1` (stereo not drawn), for which the “hERG current change (%, negative = inhibition) at 1uM” value is given as 4.91%.
Regarding `CC(C)(C)c1ccc(OC(=O)c2ccccc2)cc1`, the “hERG current change (%, negative = inhibition) at 1uM” value stood at 16.6%.
Regarding `CCN(CC)CCOc1ccc2c(c1)C(=NO)c1cc(OCCN(CC)CC)ccc1-2.Cl`, the “hERG current change (%, negative = inhibition) at 1uM” value worked out at 1.1%.
For `CCCn1nnc(NC(=O)COc2ccc(CC)cc2)n1`, the “hERG current change (%, negative = inhibition) at 1uM” value turned out to be 0.793%.
On to `COCCCNC(=O)c1ccc2nc3ccccc3c(=O)n2c1`, for which the “hERG current change (%, negative = inhibition) at 1uM” value came to 18.8%.
Turning to `CCO/N=C/C(=O)Nc1ccc(F)cc1F`, the “hERG current change (%, negative = inhibition) at 1uM” value was 13.3%.
In the case of `CC(=O)c1cc(CN2CCN(Cc3ccc(C)cc3)C(CCO)C2)cs1` (stereo not drawn), the “hERG current change (%, negative = inhibition) at 1uM” value was -33.2%.
For the compound `COc1ccccc1C(=O)NCC(=O)N/N=C/c1cccc(Cl)c1`, the “hERG current change (%, negative = inhibition) at 1uM” value is on record as -14.8%.
With `CCOC(=O)CNc1c(-c2ccc(Cl)cc2)nc2cnccn12` the figure was -11.5%; with `Cl.O=C(NCC(c1cccs1)N1CCOCC1)c1ccc(Cl)s1` (stereo not drawn), -7.66%; with `COc1ccc2nc(NC(=O)c3cnccn3)sc2c1`, 14.5%.
As for `COc1ccc(CNC(=O)Cc2csc(Nc3nc(=S)[nH]c4ccccc34)n2)cc1`, the “hERG current change (%, negative = inhibition) at 1uM” value turned out to be 4.29%.
Regarding `CCCc1nc2oc3ccccc3c(=O)c2c(=O)n1-c1ccccc1`, the “hERG current change (%, negative = inhibition) at 1uM” value is reported as 14.5%.
As for `O=C(CN1CCN(c2ccccc2F)CC1)c1ccc2cc[nH]c2c1`, the “hERG current change (%, negative = inhibition) at 1uM” value is -45.6%.
For the compound `CCCCc1nnc(NC(=O)CS(=O)(=O)Cc2ccccc2)s1`, the “hERG current change (%, negative = inhibition) at 1uM” value is 13.4%.
On to `O=S(=O)(c1ccc2ccccc2c1)N1CCN=C1SCc1cccnc1`, for which the “hERG current change (%, negative = inhibition) at 1uM” value is recorded as 1.98%.
Regarding `O=C(CCc1nc2ccccc2c(=O)[nH]1)N1CCN(S(=O)(=O)c2cccc(F)c2)CC1`, the “hERG current change (%, negative = inhibition) at 1uM” value is listed as 1.9%.
Consider `CNC(=O)c1sc(Nc2ccc(OCc3ccccc3)cc2)nc1C`, for which the “hERG current change (%, negative = inhibition) at 1uM” value turned out to be 13.1%.
`Cl.O=C(O)c1cc(S(=O)(=O)N2CCN(C(c3ccccc3)c3ccccc3)CC2)ccc1Cl`: the “hERG current change (%, negative = inhibition) at 1uM” value is recorded as 4.17%.
The figure for `O=C(Nc1cccc(CNCCc2c[nH]c3ccccc23)c1)c1ccccc1Cl.O=C(O)C(=O)O` is 3.45%; for `Cc1sc2ncn(CC(=O)N3CCN(c4ccc(F)cc4)CC3)c(=O)c2c1S(=O)(=O)N1CCOCC1` it is -33.1%.
With `Cc1cc(C)cc(NS(=O)(=O)c2c(C)[nH]c(=O)[nH]c2=O)c1` the figure was 14.8%; with `COc1cccc(NC(=O)c2ccc3c(c2)N(CC(=O)N2CCOCC2)C(=O)C(C)(C)O3)c1`, 10.4%; with `Cl.OC(COc1ccccc1)CN1C2=NCCCN2c2ccccc21` (stereo not drawn), -54.6%.
The figure for `COc1cc(C(=O)N2CCN(S(=O)(=O)c3ccc(F)cc3)CC2)cc(OC)c1OC` is 0.916%.
`O=C(COc1ccccc1[N+](=O)[O-])N1CCCc2ccccc21`: the “hERG current change (%, negative = inhibition) at 1uM” value is 9.45%.
For `Cc1ccc(Cl)cc1NC(=S)NCCCSC1CCCCC1`, the “hERG current change (%, negative = inhibition) at 1uM” value turned out to be 3.51%.
With `COc1ccccc1Nc1nc(-c2sc(NC(=O)c3ccco3)nc2C)cs1`, the “hERG current change (%, negative = inhibition) at 1uM” value was 4.48%.
As for `Cc1ccc(NC(=O)CCC(=O)N2CCOc3ccccc32)c(Cl)c1`, the “hERG current change (%, negative = inhibition) at 1uM” value was 10.8%.
For the compound `CCOC(=O)C1=C(O)C(=O)N(Cc2ccc(C(C)(C)C)cc2)CC1`, the “hERG current change (%, negative = inhibition) at 1uM” value worked out at 15.9%.
Take `CC(C)[C@H](NC(=O)N1c2ccccc2NC(=O)[C@@H]1C(C)C)C(=O)N1CCC(C(=O)O)CC1`: the “hERG current change (%, negative = inhibition) at 1uM” value is 4.61%.
For the compound `CC(=O)c1ccc(-n2c(C)ccc2-c2ccccc2)cc1`, the “hERG current change (%, negative = inhibition) at 1uM” value was 3.29%.
In the case of `O=C(CCn1cnc2ccccc21)N/N=C/c1ccccc1O`, the “hERG current change (%, negative = inhibition) at 1uM” value came to 4.34%.
As for `COc1ccc(CCn2c(=O)c3cccnc3n(Cc3cccc([N+](=O)[O-])c3)c2=O)cc1OC`, the “hERG current change (%, negative = inhibition) at 1uM” value is -1.88%.
Consider `COc1ccc(C(=O)CC(=O)c2ccc(C)cc2)c(O)c1`, for which the “hERG current change (%, negative = inhibition) at 1uM” value is on record as 13.8%.
As to `CS(=O)(=O)c1ccc(C(=O)Nc2ccccc2N2CCOCC2)c(Cl)c1`, the “hERG current change (%, negative = inhibition) at 1uM” value worked out at 6.04%.
In the case of `CCOC(=O)C1=C(CSc2nc(C)cc(C)c2C#N)OC(N)=C(C#N)C1c1cccs1` (stereo not drawn), the “hERG current change (%, negative = inhibition) at 1uM” value is 1.03%.
Regarding `CCOC(=O)c1ccc(N2C(=O)CC(N3CC=C(c4ccc(F)cc4)CC3)C2=O)cc1` (stereo not drawn), the “hERG current change (%, negative = inhibition) at 1uM” value is reported as 11.7%.
In the case of `Cc1sc(NC(=S)NC(=O)C(C)(C)C)c(C(N)=O)c1C`, the “hERG current change (%, negative = inhibition) at 1uM” value is reported as 6.85%.
The figure for `COCCn1c(N)c(C(=S)NC(=O)c2cccs2)c(=O)[nH]c1=O` is 15%; for `CCc1c(C)nc2ncnn2c1Nc1ccc(C)c(C)c1` it is -2.55%.
